Test results taken from the antibiotic and cytotoxicity screens of Wong et al. (2023).
The other results are listed elsewhere or left out.

Experiments:
[1] = tested on: HSkMC (human skeletal muscle cells); experiment: cytotoxicity call (relative viability < 0.9); details: 10 µM
[2] = tested on: HepG2; experiment: cytotoxicity call (relative viability < 0.9); details: 10 µM
[3] = tested on: S. aureus RN4220; experiment: growth inhibition call (relative growth <= 0.2); details: 50 µM

Row | SMILES | cytotoxicity call [1] | cytotoxicity call [2] | growth inhibition call [3]
1 | CO[C@@H]1CN(C)C(=O)c2cc(NC(=O)C3CCOCC3)ccc2OC[C@@H](C)N(Cc2cccnc2)C[C@H]1C | inactive | inactive | inactive
2 | CCC1OC(=O)CC(O)C(C)C(OC2OC(C)C(OC3CC(C)(O)C(O)C(C)O3)C(N(C)C)C2O)C(CC=O)CC(C)C(=O)C=CC(C)=CC1COC1OC(C)C(O)C(OC)C1OC.O=C(O)C(O)C(O)C(=O)O (stereo not drawn) | inactive | inactive | active
3 | COc1ccc2c(c1)c(-c1ccccc1)nn2-c1ccc(C)cc1 | inactive | inactive | inactive
4 | C[C@@H]1CN([C@@H](C)CO)C(=O)c2cccc(NC(=O)c3ccc(-c4nccs4)cc3)c2O[C@H]1CN(C)Cc1ccc(Cl)c(Cl)c1 | inactive | inactive | inactive
5 | C[C@H]1CCCCO[C@@H](CN(C)C(=O)Nc2ccccc2)[C@@H](C)CN([C@@H](C)CO)C(=O)c2cc(NC(=O)Nc3ccc(F)cc3)ccc2O1 | inactive | inactive | inactive
6 | C[C@@H]1CCCCO[C@H](CN(C)Cc2ccc(C(F)(F)F)cc2)[C@H](C)CN([C@H](C)CO)C(=O)c2cc(NC(=O)Nc3ccccc3)ccc2O1 | active | active | inactive
7 | O=C(CCCCCNC(=O)OCc1ccc(CO[C@H]2C[C@@H](c3csc4ccccc34)C=C(C(=O)N3CCN(Cc4ccc5c(c4)OCO5)CC3)O2)cc1)NO | inactive | inactive | inactive
8 | COc1ccccc1S(=O)(=O)N(C)C[C@@H]1Oc2cc(C#CCC(C)C)ccc2S(=O)(=O)N([C@@H](C)CO)C[C@@H]1C | inactive | inactive | inactive
9 | CC12CCC(=O)C=C1CCC1C2C(O)CC2(C)C1CCC2(O)C(=O)COP(=O)([O-])[O-].CC[NH+](CC)CC.CC[NH+](CC)CC (stereo not drawn) | inactive | inactive | inactive
10 | C[C@@H]1CCCCO[C@@H](CN(C)S(=O)(=O)c2ccccc2)[C@@H](C)CN([C@H](C)CO)C(=O)c2cc(NC(=O)NC3CCCCC3)ccc2O1 | inactive | inactive | inactive
11 | COc1ccccc1CNC(=O)C[C@@H]1C[C@H]2c3cc(NC(=O)c4cccnc4)ccc3O[C@H]2[C@H](CO)O1 | inactive | inactive | inactive
12 | C[C@@H]1CN([C@H](C)CO)C(=O)c2cc(NS(=O)(=O)c3ccc(Cl)cc3)ccc2O[C@@H](C)CCCCO[C@@H]1CN(C)Cc1ccncc1 | inactive | inactive | inactive
13 | C[C@@H]1CN([C@H](C)CO)C(=O)Cc2cc(NC(=O)Nc3cccc4ccccc34)ccc2O[C@@H]1CN(C)Cc1ccc2c(c1)OCO2 | inactive | active | inactive
14 | Cc1noc(C)c1S(=O)(=O)Nc1ccc2c(c1)CC(=O)N([C@@H](C)CO)C[C@@H](C)[C@@H](CN(C)S(C)(=O)=O)O2 | inactive | inactive | inactive
15 | Nc1cc(N2CCCCC2)nc(N)[n+]1[O-] | inactive | inactive | inactive
16 | Cc1ccc(S(=O)(=O)C[C@H]2O[C@@H](n3cc(I)c(=O)[nH]c3=O)C[C@@H]2O)cc1 | inactive | inactive | inactive
17 | C[C@@H]1CN([C@@H](C)CO)C(=O)c2cc(NC(=O)Cn3cnnn3)ccc2O[C@H]1CN(C)C(=O)Nc1ccccc1 | inactive | inactive | inactive
18 | C[C@@H]1CN([C@@H](C)CO)C(=O)Cc2cc(NC(=O)Nc3cccc4ccccc34)ccc2O[C@@H]1CN(C)Cc1ccc(C(=O)O)cc1 | inactive | inactive | inactive
19 | O=C(C[C@H]1C[C@H]2c3cc(NS(=O)(=O)c4ccc(F)cc4)ccc3O[C@H]2[C@@H](CO)O1)NCc1ccccc1F | inactive | inactive | inactive
20 | C[C@@H]1CN([C@@H](C)CO)C(=O)c2cc(NS(=O)(=O)c3ccc(Cl)cc3)ccc2O[C@@H](C)CCCCO[C@H]1CN(C)S(=O)(=O)c1ccccc1 | inactive | inactive | inactive
21 | C[C@H](CO)N1C[C@H](C)[C@H](CN(C)C(=O)CCCN(C)C)OCCCC[C@H](C)Oc2ccc(NS(=O)(=O)c3cn(C)cn3)cc2C1=O | inactive | inactive | inactive
22 | CNC[C@H]1OCCCC[C@@H](C)Oc2ccc(NS(=O)(=O)c3c(C)noc3C)cc2C(=O)N([C@@H](C)CO)C[C@H]1C | inactive | inactive | inactive
23 | C[C@@H]1CCCCO[C@@H](CN(C)S(=O)(=O)c2ccccc2)[C@@H](C)CN([C@H](C)CO)C(=O)c2cc(NC(=O)Nc3ccc4c(c3)OCO4)ccc2O1 | inactive | inactive | inactive
24 | CNC[C@@H]1OCCCC[C@@H](C)Oc2ccc(NC(=O)c3ccncc3)cc2C(=O)N([C@H](C)CO)C[C@H]1C | inactive | inactive | inactive
25 | C[C@@H]1CN([C@@H](C)CO)C(=O)c2cc(NC(=O)NC3CCCCC3)ccc2O[C@@H](C)CCCCO[C@@H]1CN(C)C(=O)NC1CCCCC1 | inactive | inactive | inactive
26 | CO[C@@H](CN(C)C(=O)Nc1ccc(C(F)(F)F)cc1)[C@@H](C)CN(Cc1ccccc1Cl)[C@@H](C)CO | inactive | inactive | inactive
